These results are taken from paper PMC11247502.

Sequences of proteins named here, by UniProt entry; tags and fusion partners are left off.
UniProt Q7TMB8: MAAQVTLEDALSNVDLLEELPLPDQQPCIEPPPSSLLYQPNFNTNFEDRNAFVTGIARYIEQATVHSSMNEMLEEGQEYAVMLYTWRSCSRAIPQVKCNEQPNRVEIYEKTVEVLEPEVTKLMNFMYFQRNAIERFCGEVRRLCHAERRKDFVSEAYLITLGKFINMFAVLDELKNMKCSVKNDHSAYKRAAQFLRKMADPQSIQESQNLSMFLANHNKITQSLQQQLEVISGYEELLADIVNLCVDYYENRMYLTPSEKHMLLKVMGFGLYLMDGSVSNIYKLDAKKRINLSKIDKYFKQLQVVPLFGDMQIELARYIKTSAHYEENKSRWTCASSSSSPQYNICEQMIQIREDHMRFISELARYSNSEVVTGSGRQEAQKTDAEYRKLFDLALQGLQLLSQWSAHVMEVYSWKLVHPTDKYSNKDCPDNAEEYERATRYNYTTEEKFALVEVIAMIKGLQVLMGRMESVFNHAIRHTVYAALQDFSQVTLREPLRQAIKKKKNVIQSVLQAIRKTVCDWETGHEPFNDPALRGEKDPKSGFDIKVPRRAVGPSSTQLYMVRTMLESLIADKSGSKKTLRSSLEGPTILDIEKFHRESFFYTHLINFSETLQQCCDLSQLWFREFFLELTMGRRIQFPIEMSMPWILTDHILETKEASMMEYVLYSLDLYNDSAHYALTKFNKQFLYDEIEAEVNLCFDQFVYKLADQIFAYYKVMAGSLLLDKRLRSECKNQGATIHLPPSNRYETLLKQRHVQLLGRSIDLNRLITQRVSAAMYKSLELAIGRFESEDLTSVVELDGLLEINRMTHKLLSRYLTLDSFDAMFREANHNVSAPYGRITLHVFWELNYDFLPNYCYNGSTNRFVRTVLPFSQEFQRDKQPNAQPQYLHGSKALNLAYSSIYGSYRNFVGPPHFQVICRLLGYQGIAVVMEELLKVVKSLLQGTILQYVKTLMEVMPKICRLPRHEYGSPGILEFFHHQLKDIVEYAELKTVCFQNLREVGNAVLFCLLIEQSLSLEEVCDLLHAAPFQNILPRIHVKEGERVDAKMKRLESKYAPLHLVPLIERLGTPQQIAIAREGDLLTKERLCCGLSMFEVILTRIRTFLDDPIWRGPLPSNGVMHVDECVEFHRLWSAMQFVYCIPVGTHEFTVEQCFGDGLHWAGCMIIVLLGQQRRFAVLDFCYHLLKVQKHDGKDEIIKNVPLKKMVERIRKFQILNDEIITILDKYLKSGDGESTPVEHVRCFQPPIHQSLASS

No constants are given. Whether binding was seen depends on the method and setting. In cells and extracts the contact can be indirect. Some results given as binding are weak or reduced against the parent protein; the word gives no strength.

Common to all, as to test: co-IP; Lysates of Neuro2a cells expressing GFP, NTD-GFP, rICL-GFP or ICL-TET-GFP; immunoprecipitation by GFP, western blotting for endogenous proteins
Background: Immunoblotting shows a protein as a band on a membrane.

In assay [1] the target is EGFP-tagged human ATP1A3 fragment consisting of an intracellular loop (ICL), two transmembrane (T) domains and an extracellular loop (E) (ICL-TET-GFP) (human) (UniProt P13637).
Assay [2] deals with GFP-tagged N-terminal domain of ATP1A3 (NTD-GFP) (human) (UniProt P13637).
In assay [3] the target is GFP-tagged refined ICL II domain of ATP1A3 (rICL-GFP) (human) (UniProt P13637).

With Cyfip1 (from UniProt Q7TMB8 1-1253), the values for the binding entry in assay [1], in assay [2] and in assay [3] were “binds”, “no binding” and “binds”, respectively.

For “Eif4g (encoded by Eif4g1) (from UniProt Q6NZJ6 1-1600)”, the binding entry is given as “binds” in assay [1], “no binding” in assay [2] and “binds” in assay [3].

Turning to Pabpc1 (from UniProt P29341 1-636), the figures for the binding entry in assay [1], in assay [2] and in assay [3] were “binds”, “no binding” and “binds”, respectively.
